In all, about 340,000 compounds went through this assay and about 12,000 (3.5%) were called active. Inconclusive means that the source gave no clear call. Such entries were picked first, then a sample of the others. The call rests on the fitted dose curve; in most records, active means well fitted inhibition curve with a large enough effect; inconclusive means small, poorly fitted or top-dose-only effect, or another doubt; inactive means no such curve, though single readings can be large or run the other way. Potencies of inconclusive entries are left out as doubtful fits.
test: qHTS Assay for Inhibitors of Hepatitis C Virus (HCV); conditions: Huh7.5.1 HCVcc-Cre (HCVcc is cell-culture hepatitis C virus) infection, luciferase reporter, 44 h; series mostly up to 41.8 µM
Method in brief: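 Antiviral activity was scored by luciferase reporter output from cells infected with HCVcc-Cre (~0.5 moi) in presence of compound, 44 h infection period, cells seeded 1,000/well 4 h prior.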
Potency means the concentration at half of the fitted maximal effect; tags describe the fitted curve by direction and shape.

SMILES	Potency
COc1cccc(NS(=O)(=O)c2ccc(-c3coc(C)n3)cc2)c1	inactive
Cc1ccc(N(C)S(=O)(=O)c2cccc(C(=O)NC3CC(C)(C)NC(C)(C)C3)c2)cc1	inconclusive [inhibitor, single point]
CN(Cc1ccc(OC(F)F)cc1)C(=O)/C=C/c1ccc(S(=O)(=O)N2CCOCC2)cc1	inconclusive [inhibitor, full curve]
CCCCCn1cnc2sc(-c3ccccc3)cc2c1=O	inconclusive [inhibitor, single point]
C=Cc1ccc(Cn2c(=O)n(C)c(=O)c3sccc32)cc1	inconclusive [inhibitor, single point]
COc1cc(C(=O)Nc2nccs2)cc(OC)c1OC	active: 14.1 µM
CCOc1ccc(Br)cc1S(=O)(=O)Nc1ccc(NC(=O)c2ccccc2F)cc1	inconclusive [inhibitor, partial curve]
N#C/C(=C\c1ccccn1)c1ccccn1	inconclusive [inhibitor, single point]
COC(=O)C1=C(C(=O)OC)[C@@H]2N(C)c3ccc(OC)cc3[C@@]23C[C@@H](C(=O)OC)N(S(=O)(=O)c2ccc(OC)cc2)C3=N1	inconclusive [inhibitor, single point]
Cc1ccc(NC(=O)c2cc(-c3cc(C)c(C)cc3O)n[nH]2)cc1C	inactive
O=C(c1ccc(NC2=NC3CS(=O)(=O)CC3S2)cc1)N1CCN(c2ccc(F)cc2)CC1 (centres undefined)	inactive
CCN1CCN(c2ncc(C(=O)N3CCCc4ccccc43)c3ccccc23)CC1	inconclusive [inhibitor, single point]
CCOC(=O)c1c(N)n(CCCOC(=O)c2ccco2)c2nc3ccccc3nc12	active: 11.2 µM
O=[N+]([O-])c1oc2ccc3ccccc3c2c1CCO	inconclusive [inhibitor, partial curve]
CCOC(=O)c1cc(-c2ccccc2C)n(CC2CC(c3ccc(OC)cc3)=NO2)n1 (centres undefined)	inconclusive [inhibitor, single point]
COc1ccc(C(C)=O)cc1COC(=O)CCNS(=O)(=O)c1ccc(C)c(C)c1	inactive
CN(CCOCCOc1ccc(Cl)cc1Br)Cc1ccccc1	inconclusive [inhibitor, partial curve, poor fit]
Cc1cccc(N2CC(C(=O)Nc3ccc4c(c3)OCCO4)CC2=O)c1C (centres undefined)	inactive
CC(=O)NC(Cc1ccc(N(CCCl)CCCl)cc1)C(=O)NC(CC(C)C)C(=O)O (centres undefined)	inactive
COc1ccc(Oc2ccc(N/C=C3\CCCC3=O)cc2)cc1	inconclusive [inhibitor, partial curve]
CCCC(=O)Nc1cc(OC)c(NC(=O)NC2CCCCC2)cc1OC	inconclusive [inhibitor, full curve, poor fit]
COc1cc(CCC(=O)N2CCN(c3cccc(C)c3C)CC2)cc(OC)c1OC	inconclusive [inhibitor, partial curve]

SMILES	Potency
CC(=O)c1cc(C(=O)c2ccccc2)sc1Nc1ccccc1	active: 12.6 µM
CCC(=NCc1cc(OC)cc(OC)c1)c1c(O)n(C2CCCCC2)c(=O)[nH]c1=O	inconclusive [inhibitor, partial curve]
COc1ccc(OCC(=O)Nc2ccc(NC(=O)c3ccccc3Cl)c(OC)c2)cc1	inconclusive [inhibitor, partial curve]
CC(C)c1ccc2c(c1)CCC1C(C)(CN)CCCC21C (centres undefined)	inconclusive [inhibitor, single point]
CCCCn1c(=O)[nH]c(=O)c2c1nc(-c1ccc(OC)c(Br)c1)n2CC(C)C	active: 10 µM
Cc1noc(C)c1CSc1nc2sc(C)c(C)c2c(=O)n1C1CCCC1	inconclusive [inhibitor, full curve]
O=[N+]([O-])c1ccc2nc(/C=C/c3ccc(Cl)cc3)[nH]c2c1	inconclusive [inhibitor, single point]
Cc1sc(NC(=O)CN2CCCC2)nc1-c1ccc2c(c1)CCN2C(=O)c1cccc(F)c1	inconclusive [inhibitor, partial curve]
COc1ccc(-c2cc(C(=O)N3CCN(c4ccccc4)CC3)no2)cc1OC	inactive
CC1(C)Cc2c(C#N)c(NCCc3ccccc3)nc(-c3ccco3)c2CO1	inconclusive [inhibitor, single point]
O=C(Nc1cccc(Cl)c1)OCC#CCN1CCCC1	inconclusive [inhibitor, single point]
CC(=O)C1=C(C)NC(SCC(=O)c2ccc(C)cc2)=C(C#N)C1c1ccco1 (centres undefined)	active: 7.08 µM
Cc1ccc(OCC(=O)Nc2ccc(C)c(S(=O)(=O)N3CCCCCC3)c2)c([N+](=O)[O-])n1	inconclusive [inhibitor, full curve, poor fit]
CCCN(CCC)CCCNC(=S)Nc1ccc2nc(N3CCN(CC)CC3)cc(C)c2c1	inconclusive [inhibitor, single point]
Cc1ccc(CN2C(=O)C(Cc3ccccc3)Nc3ncnc(N4CCN(c5ccccc5)CC4)c32)cc1 (centres undefined)	inconclusive [inhibitor, single point]
Cc1cccc(OC(C)C(=O)Nc2cc(Cl)ccc2-n2cncn2)c1 (centres undefined)	inconclusive [inhibitor, partial curve]
CCC(=O)Nc1cccc(C(=O)/C=C/c2ccc(F)cc2)c1	active: 10 µM
CC(=O)c1sc2nc(-c3ccco3)ccc2c1N	inactive
COc1ccc(OC)c(/C=C/C(=O)c2ccc(Cl)cc2)c1	inconclusive [inhibitor, partial curve]
CCCCOc1cccc(C(=O)Nc2ccc(S(=O)(=O)Nc3nnc(CC)s3)cc2)c1	inactive
C/C(CCc1ccc2c(c1)OCO2)=N\NC(=O)c1ccc(C)cc1C	inactive
c1ccc2c(c1)Sc1ccccc1N2CC1CN2CCC1CC2 (centres undefined)	inactive
